# According to paper PMC4336329 (PLoS ONE, 2015):
# In all, about 310,000 compounds went through this assay and about 2,200 (0.71%) showed an effect of 50% or more. Effects have a minus sign here. This is one part of the list. *1 amine or outer side, *2 acyl side, *3 side chain or, on linkers, in order; H or OH if unused. Where a SMILES comes first, the peptide text is derived from it. Bridges are numbered along the chain shown (N, C = ends). [ ]: non-standard residue; d: D form. ξ: configuration not given here. hSer(Ph(2-I,4-NO2,6-CO)) = O=C([C@H](CCOc1c(I)cc([N+](=O)[O-])cc1C(=O)[*:3])N[*:1])[*:2]; ξD = NC(CC(=O)O)C(=O)O
# Target: human ether-à-go-go-related gene (hERG) potassium channel (human, UniProt Q12809)
# Sequence (Q12809 whole entry, looked up): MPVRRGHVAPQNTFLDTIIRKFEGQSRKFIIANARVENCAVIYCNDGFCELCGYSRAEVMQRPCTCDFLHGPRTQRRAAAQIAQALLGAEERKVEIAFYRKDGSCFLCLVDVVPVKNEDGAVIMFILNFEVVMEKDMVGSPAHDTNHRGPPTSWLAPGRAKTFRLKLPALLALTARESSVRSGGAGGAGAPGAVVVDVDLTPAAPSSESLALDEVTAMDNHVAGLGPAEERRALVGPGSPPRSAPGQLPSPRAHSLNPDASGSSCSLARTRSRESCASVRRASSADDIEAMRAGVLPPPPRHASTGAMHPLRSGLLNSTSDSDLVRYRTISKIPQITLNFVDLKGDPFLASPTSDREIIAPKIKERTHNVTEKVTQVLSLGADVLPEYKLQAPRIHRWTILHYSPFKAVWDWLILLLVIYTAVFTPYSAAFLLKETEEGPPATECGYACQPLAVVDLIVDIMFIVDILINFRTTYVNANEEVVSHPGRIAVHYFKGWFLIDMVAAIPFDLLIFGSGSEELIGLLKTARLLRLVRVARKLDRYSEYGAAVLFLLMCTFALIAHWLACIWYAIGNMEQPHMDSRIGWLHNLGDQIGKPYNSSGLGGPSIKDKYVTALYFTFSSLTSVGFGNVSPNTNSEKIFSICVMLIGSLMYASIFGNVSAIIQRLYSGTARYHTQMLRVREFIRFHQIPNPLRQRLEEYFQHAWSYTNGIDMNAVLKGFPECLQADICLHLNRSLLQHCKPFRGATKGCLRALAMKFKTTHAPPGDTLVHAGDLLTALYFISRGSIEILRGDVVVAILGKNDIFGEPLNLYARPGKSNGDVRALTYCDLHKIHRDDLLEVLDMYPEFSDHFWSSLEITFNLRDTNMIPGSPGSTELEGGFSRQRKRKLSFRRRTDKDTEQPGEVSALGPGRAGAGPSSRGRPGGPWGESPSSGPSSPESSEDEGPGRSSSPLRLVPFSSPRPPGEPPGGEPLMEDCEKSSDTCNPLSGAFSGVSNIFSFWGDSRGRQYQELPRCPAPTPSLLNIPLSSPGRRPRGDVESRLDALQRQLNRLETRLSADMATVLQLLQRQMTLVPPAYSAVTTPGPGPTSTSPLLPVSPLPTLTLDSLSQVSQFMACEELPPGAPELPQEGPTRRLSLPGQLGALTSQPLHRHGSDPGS
# Experiment: primary screen, population patch clamp on CHO cells stably expressing hERG
row,Structure (SMILES),"hERG current change (%, negative = inhibition) at 1uM [%]"
1,COC(=O)Cc1ccc(NC(=O)C(c2ccccc2)c2ccccc2)cc1,17.3
2,CCOC(=O)c1nnn(-c2nonc2N)c1-c1ccc(Cl)cc1,10.3
3,CCC(C)NC(=O)c1c(N)n(CCCOC)c2nc3ccccc3nc12 (centres unmarked),12
4,O=C(CCC(=O)N1CCN(S(=O)(=O)c2ccc(Cl)cc2)CC1)Nc1ccc2ccccc2c1,13.4
5,Cc1ccc2nc3c(cc2c1)c(NC(=O)c1ccco1)nn3CC(C)C,16.2
6,CC1CCCCC1NC(=O)CSc1nnc(CN2CCOCC2)n1C (centres unmarked),-0.94
7,CC(C)(c1ccccc1)c1ccc(OCCCN2CCNCC2)cc1.O=C(O)C(=O)O,8.83
8,CCN(CC)S(=O)(=O)c1ccc(-c2nnc(SCC(=O)Nc3nc(C)cs3)o2)cc1,5.51
9,Cc1nc(SC(C)C(=O)c2c(N)n(C)c(=O)n(C)c2=O)c2c(C)c(C)sc2n1 (centres unmarked),14.3
10,Cc1ccc2nsnc2c1NC(=O)c1cncc(Br)c1,7.5
11,Cc1nnn(C23C[C@@H]4C[C@@H](CC(C(=O)N5CCN(c6ccccc6)CC5)(C4)C2)C3)n1,3.57
12,CC1CCN(C(=O)c2cccc(S(=O)(=O)N3CCCCC3)c2)CC1,2.17
13,Cc1ccc(N2C(=O)C3C(c4ccccc4)(C2=O)C3(c2ccccc2)c2ccccc2)cc1 (centres unmarked),22.7
14,COc1ccc(Br)cc1/C=N/N1CCN(Cc2ccccc2Cl)CC1,20.8
15,Cc1ccc(S(=O)(=O)NCC(=O)N(CC2CCCO2)C(C(=O)NC2CCCCC2)C(C)C)cc1 (centres unmarked),-10.2
16,Cc1ccc(C(=O)NNC(=O)C2CCN(c3ncccn3)CC2)cc1,9.28
17,"C[C@@H]1NC(=O)[C@H](CCCN=C(N)N)NC(=O)c2cc([N+](=O)[O-])cc(I)c2OCC[C@@H](C(=O)NC(CC(=O)O)C(N)=O)NC1=O (some centres unmarked) (RA[hSer(Ph(2-I,4-NO2,6-CO))][ξD]-NH2; lactam N-3)",16.3
18,C/C(=N\NC(=O)c1nnn(-c2nonc2N)c1CN(C)c1ccccc1)c1cccs1,19.6
19,Cc1ccc(CN2C3=NCCN3c3ccccc32)cc1.Cl,-23.5
20,Cc1cc(F)ccc1NC(=O)CCc1ccc(S(=O)(=O)N2CCOCC2)cc1,-12.6
21,O=C(NNC(=S)Nc1ccccc1)c1cccc(S(=O)(=O)N2CCOCC2)c1,12.2
22,CCOC(=O)c1c(S(=O)(=O)N2CCC(C)CC2)c(C)n(C)c1C,-3.38
23,Cc1nn(-c2ccccc2)c(C)c1/C=N/NC(=O)c1cnccn1,7.89

row,Structure (SMILES),"hERG current change (%, negative = inhibition) at 1uM [%]"
1,Cc1c(Cl)cccc1NC(=S)NC1CCN(Cc2ccccc2)CC1,2.28
2,O=C1c2ccccc2C(=O)N1CCN1CCc2ccccc21,5.53
3,CC1(C)CC(=O)C=C(c2ccc(I)cc2)C1,15.7
4,COc1ccc(O)c(C(=O)CC(=O)c2ccccc2)c1,11.1
5,CC(C(=O)NC(=O)NCc1ccccc1)N1C(=O)c2ccccc2C1=O (centres unmarked),5.47
6,Cc1ccc(C2CCN(C(=O)Nc3ccc(F)cc3)C2)cc1 (centres unmarked),3.03
7,O=C(CNC(=O)c1cccs1)NCC(=O)OCC(=O)c1ccccc1,10.1
8,CC(C)c1[nH]nc2c1C(C1C=CCCC1)C(C#N)=C(N)O2 (centres unmarked),11.2
9,CC(=O)Cn1c(C(F)(F)F)nc2ccccc21,8.13
10,Cc1cc(OC(C)C(=O)NCc2ccncc2)c2c3c(c(=O)oc2c1)CCCC3 (centres unmarked),-12.2
11,CCOC(=O)c1cc2cc(OC)ccc2nc1C,-1.65
12,COc1ccc(NC(=O)c2[nH]c(C)c(C(C)=O)c2C)cc1S(=O)(=O)Nc1ccc(Br)cc1,0.916
13,NC(=O)C[n+]1cccc(/C=N/O)c1.[Cl-],8.02
14,CCCCNC(=O)c1ccc2c(OCC)n(CCCC)nc2c1,6.22
15,N/C(=N\OC(=O)c1ccco1)c1cccnc1,19.9
16,Cc1cccc(C(=O)Nc2nnc(-c3ccc(C(C)(C)C)cc3)s2)c1,-1.4
17,COc1ccc(CNC(=O)COC(=O)Cc2ccc(Cl)cc2Cl)cc1,13.4
18,Cc1nn(C)cc1S(=O)(=O)N1CCN(c2ccccc2F)CC1,7.67
19,Cc1cccc(CN2CCC(CNC(=O)CCNC(=O)Cn3ccc4ccccc4c3=O)CC2)c1,5.41
20,CC(=O)Nc1ccccc1N(C)S(=O)(=O)c1ccc(C)cc1,7.44
21,O=C(OCn1nnc2ccccc2c1=O)C1=COCCO1,11
22,Cc1ccc(S(=O)(=O)NCCC(=O)OCC(=O)NCCc2ccccc2)cc1C,4.85
23,N#C/C(=C\c1cn(CC(=O)N2CCCCC2)c2ccccc12)C(=O)NCc1ccc2c(c1)OCO2,1.35

row,Structure (SMILES),"hERG current change (%, negative = inhibition) at 1uM [%]"
1,COc1ccc(CCNS(=O)(=O)c2ccc3c(c2)NC(=O)C(C)S3)cc1OC (centres unmarked),17.7
2,Cc1nc(SC(C)C(=O)NC2CCCCC2C)c2c(C)c(C)sc2n1 (centres unmarked),11.1
3,Cc1cccc(CSC2=NCCN2C(=O)C2CC2)c1,5.91
4,Cc1cc(=O)oc2c(C)c(OCC(=O)NC3CC(C)(C)NC(C)(C)C3)ccc12,-2.11
5,O=C(CSc1ccc(-c2ccccn2)nn1)N1CCCc2ccccc21,9.54
6,Cc1cc(C)cc(NC(=O)N2CCCCCCC2)c1,10.4
7,CCOC(=O)c1ccc(-c2c(-c3ccc4c(c3)OCO4)noc2C)cc1F,12.4
8,CCc1nnc(NC(=O)c2ccc(Br)o2)s1,14.8
9,CCOc1ccc(-c2nnn(CC(=O)N3CCCC3)n2)cc1OCC,13.6
10,COc1ccc(N2CCOCC2)c(NC(=O)COc2cccc(C)c2C)c1,7.18
11,COc1cccc2cc(/C(C)=N/NC(=O)c3ccco3)oc12,9.53
12,COc1cc2cc(CCCOC(=O)CCCC(=O)O)oc(=O)c2cc1OC,10.6
13,CC1=CC(=O)CC2C1(C)CCC(C)C2(C)CCC(C)CC(=O)O (centres unmarked),12.7
14,CCN(CC)C(=O)COc1ccc2c(-c3ccccc3)cc(=O)oc2c1,12.9
15,O=C(c1ccco1)N(Cc1cccc(Cl)c1)C1CCS(=O)(=O)C1 (centres unmarked),-29.3
16,COC(=O)c1sc2ncn(CC(=O)NCCc3ccc(OC)c(OC)c3)c(=O)c2c1C,8.82
17,Cc1ccc(N=C(c2cccs2)N2CCOCC2)cc1,10.5
18,CN1CCN(C2OC(=O)c3ccccc32)CC1 (centres unmarked),-7.97
19,CC(=O)Nc1ccc(S(=O)(=O)NC(C(=O)O)C(C)O)cc1 (centres unmarked),7.99
20,CN(C)c1ccc(NS(=O)(=O)c2cc(Cl)ccc2Cl)cc1,13.3
21,O=C(CNC(=O)c1ccc(S(=O)(=O)N2CCCC2)cc1)N/N=C/c1ccco1,10.9
22,CSc1nnc2ccc(-c3ccc(C)cc3)nn12,3.76
23,O=C(CCCCCn1c(=S)[nH]c2ccc(N3CCOCC3)cc2c1=O)NCc1cccc(Cl)c1,6.17

row,Structure (SMILES),"hERG current change (%, negative = inhibition) at 1uM [%]"
1,CCOC(=O)C(=O)Nc1ccc2c(c1)OCO2,5.63
2,O=C(/C=C/c1ccccc1)NC1CC2CCCC(C1)N2Cc1ccccc1 (centres unmarked),-46.4
3,O=c1c2ccccc2c(-c2ccccc2)nn1-c1ccccn1,8.68
4,CC(=O)c1cc(CN2CCN(Cc3ccccc3)C(CCO)C2)cs1 (centres unmarked),6.67
5,COC(=O)NCC(c1cccnc1)N1CCN(c2ccccc2)CC1 (centres unmarked),2.56
6,COc1ccc(OCC#CCN2CCC(C)CC2)cc1.O=C(O)C(=O)O,4.86
7,Cc1cccc2c(=O)oc(-c3ccccc3Cl)nc12,11
8,COc1ccc(C2CC(c3c(-c4ccccc4)c4cc(Cl)ccc4[nH]c3=O)=NN2C(=O)CCC(=O)O)cc1 (centres unmarked),9.98
9,C/C(=N\Nc1nc2ccccc2[nH]1)c1ccccn1,-55.5
10,COc1ccc(/C=N/N2CCN(c3ccc(Cl)cc3)CC2)cc1,17.1
11,COC(=O)c1sc(S(=O)(=O)NC(C)C(=O)O)c(C(=O)OC)c1C (centres unmarked),-4.83
12,CC(C)(C)NCC1(CO)SC(N)=NC1=O.O.O=S(=O)(O)O (centres unmarked),11.1
13,CNC(=O)CSc1nnc(-c2ccccn2)n1Cc1ccco1,3.09
14,Cn1c(O)c(C=Nc2ccccc2)c(=O)n(C)c1=O,8.14
15,Cc1ccccc1NC(=O)CCCCCN1C(=O)[C@@H]2Cc3ccccc3CN2C1=O,-1
16,O=C(CCNC(=O)C1CCN(S(=O)(=O)c2ccc(F)cc2)CC1)NC1CC1,6.19
17,O=C(NC(=S)N1CCN(Cc2ccccc2)CC1)c1ccccc1,5.95
18,O=C(COc1ncnc2ccccc12)N1CCOCC1,7.29
19,COc1ccccc1NC(=O)COc1ccccc1C(=O)Nc1ccccc1,9.6
20,Cc1ccc(-c2cc(C(=O)Nc3cccnc3)[nH]n2)c(O)c1C,8.35
